# This is one part of the list. These are further read-outs of the screen, such as a control signal, another cell line or another target. No call is given for them. Most of these compounds were active or inconclusive in the main read-out, so they are no random draw. The note in brackets gives the kind of curve behind each potency; many fits are weak.
# Experiment: Natriuretic polypeptide receptor (hNpr1) antagonism - Confirmation; also: nearly all actives have a fitted effect of over 70% in size
# Conditions: HEK293 hNpr1 cGMP GloSensor luminescence, ANP-stimulated; measured here: HEK-hNpr1 cytotoxicity, CellTiter-Glo
# Method in brief: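 Compound (30 min, room temperature) preceded stimulation with hNppA peptide at 0.1 nM final for 20 min. Cells were HEK293 carrying hNpr1 plus GloSensor pGS-40F cGMP biosensor, pre-equilibrated 2 h with 2% substrate; cGMP was followed as luminescence pre- and post-agonist.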
# Tags tell the direction and shape of the fitted curve.
row,Compound,CC50
1,COc1ccc(C(=O)N2CCN(c3cc(-c4ccc(Cl)cc4)[nH]n3)CC2)cc1F,"19.3 µM [falling, partial curve]"
2,COc1ccc(C(=O)N2CCC(Cc3nc(-c4ccc(F)cc4)no3)CC2)cc1F,"1.72 µM [falling, full curve]"
3,O=C(NC1CCCc2c1cnn2-c1ccc(F)cc1F)c1ccsc1 (stereo unspecified),"21.7 µM [falling, partial curve]"
4,O=C(c1ccc(F)cc1F)N1CCN(c2cc(-c3ccc(Cl)cc3)[nH]n2)CC1,"19.3 µM [falling, partial curve]"
5,O=C(C1CC1)N1CCC(n2cc(-c3nc(-c4ccccc4)no3)nn2)CC1,"24.3 µM [falling, single point]"
6,O=C(N1CCCN(c2cc(-c3ccc(Cl)cc3)[nH]n2)CC1)C1(c2ccccc2)CC1,"21.7 µM [falling, partial curve]"
7,Cc1cc(C)c(S(=O)(=O)N2CC(c3nc(-c4ccncc4)no3)C2)c(C)c1,"24.3 µM [falling, partial curve]"
8,O=[S+]([O-])(Nc1ccccc1)c1ccc2c(c1)OCCN(Cc1ccncc1)C2,"44.4 µM [falling, single point]"
9,COc1ccc(C(=O)N2CCC3(CC2)N=C(c2cccc(Br)c2)NO3)c(OC)c1,"21.7 µM [falling, partial curve]"
10,COc1cccc(-c2noc(CC3CCN(C(=O)c4ccc(C(C)C)cc4)CC3)n2)c1,"19.3 µM [falling, partial curve]"
11,Cc1ccccc1-c1cnc2[nH]cc(CC(=O)NC(C)C)c2c1,"28 µM [falling, partial curve]"
12,Cc1nc2ccccn2c1C(=O)NC(C)c1cnn(-c2ccccn2)c1C (stereo unspecified),"13.7 µM [falling, partial curve]"
13,O=C(Nc1ccc(F)cc1)C1CCc2nc(N3CCN(C(=O)C4CCC4)CC3)sc2C1 (stereo unspecified),"9.68 µM [falling, full curve]"
14,Cc1nsc(NC(=O)NC23CC4CC(C2)CC(C(C)C)(C4)C3)n1,"27.3 µM [falling, partial curve]"
15,COc1ccc(-c2noc(CC3CCN(C(=O)c4ccccc4C)CC3)n2)cc1,"19.3 µM [falling, partial curve]"
16,CCc1noc(CC2CCOC3(CCN(S(=O)(=O)c4cccc(Cl)c4)CC3)C2)n1 (stereo unspecified),"21.7 µM [falling, partial curve]"
17,CC(C)c1ccc(CC(=O)N2CCCc3ncc(C(=O)Nc4cccnc4)cc32)cc1,"35.3 µM [falling, partial curve]"
18,COc1cccc(-c2noc(CC3CCN(C(=O)c4ccc(F)cc4)CC3)n2)c1,"10.9 µM [falling, partial curve]"
19,CC(C)c1noc(-c2cn(C3CCCN(C(=O)c4cccc5[nH]ccc45)C3)nn2)n1 (stereo unspecified),"24.3 µM [falling, partial curve]"
20,Cc1ccc(-c2ccc(O)cn2)c2cccnc12,"27.3 µM [falling, single point]"
21,COc1ccc(CCC(=O)N2CCC(Cc3nc(-c4ccc(F)cc4)no3)CC2)cc1,"10.9 µM [falling, partial curve]"

row,Compound,CC50
1,Cc1nn(C)c(C)c1CCCN(C)C(=O)c1ccc2c(c1)C(O)CCCCCN2C (stereo unspecified),"13.7 µM [falling, partial curve]"
2,COCc1cc(N2CCc3onc(-c4cccc5ccccc45)c3C2)ncn1,"21.7 µM [falling, partial curve]"
3,Cc1cc(=O)n(CC(=O)Nc2ccc(F)c(Cl)c2)c(N(C)Cc2ccccc2)n1,"19.3 µM [falling, partial curve]"
4,COc1ccc(C(=O)Nc2ccc(-c3noc([C@@H]4CCCN4CCCc4ccccc4)n3)cn2)cc1,"15.3 µM [falling, partial curve]"
5,O=C(c1ccc2c(c1)OCO2)N1CCCN(c2cc(-c3ccc(Br)cc3)[nH]n2)CC1,"21.7 µM [falling, partial curve]"
6,O=C(Cc1ccccc1F)N1CC(Oc2ccc(-c3noc(-c4cccnc4)n3)cc2)C1,"24.3 µM [falling, partial curve]"
7,COc1ccc(CN2C[C@H]3CN(Cc4ccc(C)cc4)CCN3C2=O)cc1,"28 µM [falling, partial curve]"
8,COc1ccc(-c2nc(CC3CCN(C(=O)c4n[nH]c(=O)c5ccccc45)C3)no2)cc1 (stereo unspecified),"17.2 µM [falling, partial curve]"
9,O=C1NCCCCCCN(Cc2cccc(F)c2)[C@H]2C[C@H](C(=O)N3CCc4ccccc4C3)C[C@@H]12,"43.2 µM [falling, single point]"
10,O=C(NCc1ccccc1)c1csc(N2CCN(c3ccc(Cl)cc3)CC2)n1,"21.7 µM [falling, partial curve]"
11,COc1cccc(NC(=O)c2ccc(-c3nnc4ccc(NC(=O)C5CCC5)cn34)cc2)c1,"9.68 µM [falling, full curve]"
12,COc1ccc(CNC(=O)c2ccc(Cn3ccn4nc5c(c4c3=O)CCCC5)cc2)cc1OC,"24.3 µM [falling, partial curve]"
13,CCOC(=O)C1=CN(CC(=O)Nc2c(C)cc(C)cc2C)S(=O)(=O)N=C1C,"21.7 µM [falling, partial curve]"
14,COc1ccc(-c2noc(CC3CCN(C(=O)Cc4ccccc4)CC3)n2)cc1,"27.3 µM [falling, partial curve]"
15,COc1ccc(-c2noc(CC3CCN(C(=O)COc4ccc(C)cc4)CC3)n2)cc1,"13.7 µM [falling, partial curve]"
16,O=C(N1CCC(n2cc(-c3nc(-c4ccccc4)no3)nn2)CC1)C1(c2ccccc2)CC1,"27.3 µM [falling, partial curve]"
17,COc1cccc([S+](=O)([O-])N2CCC3(CC2)C(=O)Nc2ccccc23)c1,"31.4 µM [falling, partial curve]"
18,O=C(NCC1CC1)c1nc2c(o1)CCN(Cc1ccc3c(c1)CCO3)CC2,"35.3 µM [falling, partial curve]"
19,O=C(c1cc(Cl)ccc1F)N1CCN(C(=O)c2nnn3c2COC(c2ccccc2)C3)CC1 (stereo unspecified),"24.3 µM [falling, partial curve]"
20,COc1ccc(S(=O)(=O)N[C@H]2C[C@@H](c3nc(-c4ccc(OC(F)(F)F)cc4)no3)N(C)C2)cc1,"19.3 µM [falling, partial curve]"
21,COc1cccc(CC(=O)N2CCN(C(=O)c3nnn4c3COC(c3ccc(C)cc3)C4)CC2)c1 (stereo unspecified),"24.3 µM [falling, partial curve]"

row,Compound,CC50
1,COc1ccc(-c2noc(CC3CCN(C(=O)Cc4ccc(OC)c(OC)c4)CC3)n2)cc1,"4.85 µM [falling, full curve]"
2,O=C(c1cc2n(n1)CC(c1ccc(Cl)cc1)OC2)N1CCN(c2ccc(Cl)cc2)CC1 (stereo unspecified),"27.3 µM [falling, single point]"
3,Cc1c(C(C)NC(=O)c2cc(CC(C)C)nn2C)cnn1-c1ccccc1 (stereo unspecified),"0.385 µM [falling, full curve]"
4,Cc1cccc(CNC(=O)c2csc(N3CCN(c4ccccc4)CC3)n2)c1,"27.3 µM [falling, partial curve]"
5,OC1CC(c2cc(N3CCC(CCn4cccn4)CC3)ncn2)C1 (stereo unspecified),"6.11 µM [falling, partial curve]"
6,Cc1ccccc1C(=O)N1CCN(C(=O)c2nnn3c2COC(c2ccc(Cl)cc2)C3)CC1 (stereo unspecified),"21.7 µM [falling, partial curve]"
7,Cc1ccc(C2Cn3nnc(C(=O)N4CCN(C(=O)c5cc(Cl)ccc5F)CC4)c3CO2)cc1 (stereo unspecified),"21.7 µM [falling, partial curve]"
8,CC(C)c1nc(-c2ccc(OC3CCN(C(=O)c4n[nH]c5ccccc45)C3)cc2)no1 (stereo unspecified),"24.3 µM [falling, partial curve]"
9,CC(C)c1ccc(C(=O)N2CCC(Cc3nc(-c4ccc(F)cc4)no3)CC2)cc1,"1.72 µM [falling, full curve]"
10,COc1cccc(-c2noc(CC3CCN(C(=O)c4ccc(C)cc4C)CC3)n2)c1,"17.2 µM [falling, partial curve]"
11,O=C(Nc1ccc(Cl)cc1)c1nc2c(o1)CCN(Cc1cccc(F)c1)CC2,"22.2 µM [falling, partial curve]"
12,O=C1c2c(nc(COc3ccc4c(c3)OCO4)n2Cc2ccccc2)NCCN1Cc1ccccc1F,"21.7 µM [falling, partial curve]"
13,O=C(Nc1ccc(Cl)cc1)c1nc2c(o1)CCN(Cc1ccccc1)CC2,"22.2 µM [falling, partial curve]"
14,O=C1NC2(CCN(Cc3ccc(OC(F)(F)F)cc3)C2)OCc2ccccc21 (stereo unspecified),"17.2 µM [falling, partial curve]"
15,COc1ccc(C2Cn3nnc(C(=O)N4CCN(C(=O)c5ccc(F)cc5Cl)CC4)c3CO2)cc1 (stereo unspecified),"24.3 µM [falling, partial curve]"
16,COc1ccc(CN2C=C(C(=O)OCc3noc(-c4ccc(C)cc4)n3)C(C)=NS2(=O)=O)cc1,"13.7 µM [falling, full curve]"
17,Cc1ccccc1-c1cnc2[nH]cc(CC(=O)NCc3ccco3)c2c1,"31.4 µM [falling, partial curve]"
18,O=C(NCc1ccccc1)c1nc2c(o1)CCN(Cc1ccc(F)cc1F)CC2,"35.3 µM [falling, partial curve]"
19,O=C(Oc1ccccc1)N1CCC(Oc2cnc3c(ccn3-c3cncnc3)c2)CC1,"35.3 µM [falling, partial curve]"
